Assay results taken from the supplement of paper PMC4604168 (melanoma cell lines).
The list shows a part of the results. Most values come without repeats; read them as rough.

Key:
Test in all cases: cell count relative to DMSO control; melanoma cells; higher = more viable cells
Conditions in all cases: library dose: low library concentration; 72 h
WM115 = tested on: WM115
WM1716 = tested on: WM1716
WM1745 = tested on: WM1745
WM3526 = tested on: WM3526
WM3619 = tested on: WM3619
WM451Lu = tested on: WM451Lu
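Further: cell number obtained by counting DAPI-stained nuclei in high-throughput microscope images with image analysis software, screen run in 1,536-well plates.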

Cc1cc(Nc2cc(N3CCN(C)CC3)nc(/C=C/c3ccccc3)n2)n[nH]1 + Nc1nc(F)nc2c1ncn2[C@@H]1O[C@H](CO)[C@@H](O)[C@@H]1O [fludarabine] (first compound 0.04 µM, partner dose 0.2 µM)
cell count (WM115): 91.6%
cell count (WM1716): 104%
cell count (WM1745): 84.4%
cell count (WM3526): 30%
cell count (WM3619): 99.9%
cell count (WM451Lu): 60.1%

COc1ccc(C2=N[C@@H](c3ccc(Cl)cc3)[C@@H](c3ccc(Cl)cc3)N2C(=O)N2CCNC(=O)C2)c(OC(C)C)c1 [Nutlin-3] + N#Cc1c(O)c2c(-c3ccc(-c4ccccc4O)cc3)csc2[nH]c1=O [A769662] (first compound 0.1 µM, partner dose 2 µM)
cell count (WM115): 96.1%
cell count (WM1716): 96.3%
cell count (WM1745): 90%
cell count (WM3526): 103%
cell count (WM3619): 132%
cell count (WM451Lu): 100%

Cc1cn(-c2cc(NC(=O)c3ccc(C)c(Nc4nccc(-c5cccnc5)n4)c3)cc(C(F)(F)F)c2)cn1 [nilotinib] + CCN(CC)CCCCNc1ncc2cc(-c3cc(OC)cc(OC)c3)c(NC(=O)NC(C)(C)C)nc2n1 [PD173074] (first compound 0.2 µM, partner dose 0.1 µM)
cell count (WM115): 110%
cell count (WM1716): 101%
cell count (WM1745): 89.7%
cell count (WM3526): 128%
cell count (WM3619): 127%
cell count (WM451Lu): 114%

Cc1cn(-c2cc(NC(=O)c3ccc(C)c(Nc4nccc(-c5cccnc5)n4)c3)cc(C(F)(F)F)c2)cn1 [nilotinib] + Cn1cc(/C=C2\C(=O)Nc3cccnc32)c2ccccc21 [GW441756] (first compound 0.2 µM, partner dose 0.4 µM)
cell count (WM115): 99%
cell count (WM1716): 104%
cell count (WM1745): 95.3%
cell count (WM3526): 99.3%
cell count (WM3619): 88.1%
cell count (WM451Lu): 96.4%

COc1ccc(C2=N[C@@H](c3ccc(Cl)cc3)[C@@H](c3ccc(Cl)cc3)N2C(=O)N2CCNC(=O)C2)c(OC(C)C)c1 [Nutlin-3] + CN1CCN(c2ccc3nc(-c4c(N)c5c(F)cccc5[nH]c4=O)[nH]c3c2)CC1 [Dovitinib] (first compound 0.1 µM, partner dose 0.1 µM)
cell count (WM115): 86.6%
cell count (WM1716): 105%
cell count (WM1745): 76.9%
cell count (WM3526): 108%
cell count (WM3619): 83%
cell count (WM451Lu): 111%

CC(C)C[C@H](NC(=O)[C@H](Cc1ccccc1)NC(=O)c1cnccn1)B(O)O [Bortezomib] + CN(NC(=O)CC(=O)NN(C)C(=S)c1ccccc1)C(=S)c1ccccc1 [STA4783] (first compound 0.001 µM, partner dose 0.006 µM)
cell count (WM115): 80.9%
cell count (WM1716): 31.7%
cell count (WM1745): 35.7%
cell count (WM3526): 84.9%
cell count (WM3619): 16.5%
cell count (WM451Lu): 96.2%

Cc1cn(-c2cc(NC(=O)c3ccc(C)c(Nc4nccc(-c5cccnc5)n4)c3)cc(C(F)(F)F)c2)cn1 [nilotinib] + C#Cc1cccc(Nc2ncnc3cc(OCCOC)c(OCCOC)cc23)c1 [erlotinib] (first compound 0.2 µM, partner dose 0.8 µM)
cell count (WM115): 103%
cell count (WM1716): 94.2%
cell count (WM1745): 85.1%
cell count (WM3526): 106%
cell count (WM3619): 95.3%
cell count (WM451Lu): 106%

COc1ccc(C2=N[C@@H](c3ccc(Cl)cc3)[C@@H](c3ccc(Cl)cc3)N2C(=O)N2CCNC(=O)C2)c(OC(C)C)c1 [Nutlin-3] + C[C@@H]1CCN(C(=O)CC#N)C[C@@H]1N(C)c1ncnc2[nH]ccc12 [CP690550] (first compound 0.1 µM, partner dose 1 µM)
cell count (WM115): 77.2%
cell count (WM1716): 80.5%
cell count (WM1745): 84%
cell count (WM3526): 94.6%
cell count (WM3619): 141%
cell count (WM451Lu): 108%

COc1ccc(C2=N[C@@H](c3ccc(Cl)cc3)[C@@H](c3ccc(Cl)cc3)N2C(=O)N2CCNC(=O)C2)c(OC(C)C)c1 [Nutlin-3] + NC(=O)Nc1cc(-c2cccc(F)c2)sc1C(=O)N[C@H]1CCCNC1 [AZD7762] (first compound 0.1 µM, partner dose 0.02 µM)
cell count (WM115): 82%
cell count (WM1716): 84.1%
cell count (WM1745): 87.5%
cell count (WM3526): 80.2%
cell count (WM3619): 68.7%
cell count (WM451Lu): 93.7%

Cc1cc(Nc2cc(N3CCN(C)CC3)nc(/C=C/c3ccccc3)n2)n[nH]1 + O=C1NC(=O)/C(=C/c2ccc(-c3ccc(F)cc3O)o2)S1 [AS252424] (first compound 0.04 µM, partner dose 1 µM)
cell count (WM115): 90.4%
cell count (WM1716): 81.9%
cell count (WM1745): 94.9%
cell count (WM3526): 93.3%
cell count (WM3619): 118%
cell count (WM451Lu): 107%

CC(C)C[C@H](NC(=O)[C@H](Cc1ccccc1)NC(=O)c1cnccn1)B(O)O [Bortezomib] + NC(=O)Nc1cc(-c2cccc(F)c2)sc1C(=O)N[C@H]1CCCNC1 [AZD7762] (first compound 0.001 µM, partner dose 0.02 µM)
cell count (WM115): 93.7%
cell count (WM1716): 35.4%
cell count (WM1745): 95.8%
cell count (WM3526): 88.5%
cell count (WM3619): 24.5%
cell count (WM451Lu): 89%

Cc1cc(Nc2cc(N3CCN(C)CC3)nc(/C=C/c3ccccc3)n2)n[nH]1 + C=CCNC1=C2C[C@@H](C)C[C@H](OC)[C@H](O)[C@@H](C)/C=C(\C)[C@H](OC(N)=O)[C@@H](OC)/C=C\C=C(/C)C(=O)NC(=CC1=O)C2=O [Tanespimycin] (first compound 0.04 µM, partner dose 0.002 µM)
cell count (WM115): 86.2%
cell count (WM1716): 98.9%
cell count (WM1745): 100%
cell count (WM3526): 96.1%
cell count (WM3619): 105%
cell count (WM451Lu): 113%
